# Measurements: the supplement of paper PMC3334620
# In all, about 33,000 sequences were measured (“E-score (-0.5 to 0.5)”: median about -0.011, highest 2% from about 0.28 on). The list shows a part of the results.
# Molecular target: T1, Gcr1 (UniProt P07261)
# T1 sequence: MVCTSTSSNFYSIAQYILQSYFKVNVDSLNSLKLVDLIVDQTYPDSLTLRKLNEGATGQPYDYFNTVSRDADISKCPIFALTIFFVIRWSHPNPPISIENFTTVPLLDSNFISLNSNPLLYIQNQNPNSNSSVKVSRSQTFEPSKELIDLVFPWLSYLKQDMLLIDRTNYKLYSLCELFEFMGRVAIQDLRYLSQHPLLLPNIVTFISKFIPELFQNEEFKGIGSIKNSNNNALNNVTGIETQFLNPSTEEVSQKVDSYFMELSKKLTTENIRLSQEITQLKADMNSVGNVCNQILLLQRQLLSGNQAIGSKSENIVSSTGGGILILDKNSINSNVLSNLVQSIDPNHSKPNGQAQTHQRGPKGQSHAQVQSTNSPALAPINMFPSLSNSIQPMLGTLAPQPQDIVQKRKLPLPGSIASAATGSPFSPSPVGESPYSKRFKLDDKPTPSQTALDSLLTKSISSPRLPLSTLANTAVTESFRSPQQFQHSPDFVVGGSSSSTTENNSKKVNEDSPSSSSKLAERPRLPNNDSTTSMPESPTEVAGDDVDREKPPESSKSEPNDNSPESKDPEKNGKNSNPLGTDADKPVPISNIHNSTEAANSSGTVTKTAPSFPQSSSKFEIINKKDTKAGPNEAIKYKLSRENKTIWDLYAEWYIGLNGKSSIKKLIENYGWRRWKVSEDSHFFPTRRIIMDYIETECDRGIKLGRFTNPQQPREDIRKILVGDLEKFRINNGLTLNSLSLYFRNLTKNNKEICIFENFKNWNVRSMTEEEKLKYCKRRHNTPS
# Experiment: PBM E-score (8-mer binding enrichment) (E-score (-0.5 to 0.5)); higher = stronger / more preferred TF binding; most listed sequences are background and not binding sites
# Settings: protein concentration: 100 nM; construct: GST-full length
# Experimental: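 Universal 'all 10-mer' protein binding microarrays (Agilent AMADID 015681) probed with GST-tagged S. cerevisiae TFs (full-length or DBD) made by in vitro transcription/translation (PURExpress), about 100-200 nM. Bound TF was detected with fluorescent anti-GST. Each ungapped 8-mer (which stands for itself and its reverse complement) is scored by the PBM enrichment score (E-score), a modified Wilcoxon-Mann-Whitney statistic from -0.5 to +0.5, computed with the Universal PBM Analysis Suite. Scale: above 0.35 generally sequence-specific binding.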
row,Sequence,PBM E-score
1,CTTTCCGA,-0.029
2,ATGACCGC,-0.267
3,CCGTTATC,0.0604
4,AGCGAAGG,0.0516
5,CTCCCTAA,0.0072
6,AATGCTCA,-0.114
7,AGATTATC,-0.00826
8,ATTACCGA,-0.0014
9,AGTCCACG,0.0254
10,CACATTCG,0.0517
11,ATCGGTGA,-0.138
12,AACGACAA,0.0507
13,AAATGATG,0.115
14,CCCTAGCG,-0.0132
15,ACAATCAA,0.0129
16,GACGGAGC,-0.124
17,CAGAAAAC,-0.144
18,ACGGCTCG,-0.105
19,GTCAACAC,-0.0186
20,AATGTACT,-0.1
21,CTAGTCCC,-0.166
22,CAACAGAC,0.0712

row,Sequence,PBM E-score
1,TGACGGCA,-0.137
2,CACCGGTA,0.0678
3,TATTCGAA,-0.0514
4,CAGCTGTA,-0.0364
5,GAGTCCAA,0.0728
6,GTACGCAC,-0.0893
7,ATCACTAG,-0.0141
8,GGTACACC,-0.189
9,AATAGAAT,0.0285
10,CCATCGTC,-0.127
11,CACTGGTA,0.194
12,AGCAGGCT,-0.17
13,ATCGCCCG,-0.236
14,ACCGGTCA,0.0157
15,CCAGAACG,-3e-05
16,CTTGAGTC,-0.0939
17,ATAGAGCG,-0.108
18,ATGGTGCA,-0.0783
19,ACTGTCAA,-0.0803
20,CTTACATC,0.115
21,TACCGTGA,0.0127
22,GAGACGGA,-0.114

row,Sequence,PBM E-score
1,AATTGCCC,-0.0306
2,CTGACTTA,0.0168
3,ACTTCTCT,0.0365
4,AAAGGTGA,-0.0123
5,GGATTGCA,0.0824
6,GGCGAGCA,-0.156
7,GTCTAAAA,-0.0626
8,CCGGTGAG,0.079
9,ACGTTTTG,0.0803
10,CGCGGTTA,-0.0967
11,AGTATGAT,-0.00344
12,TCATCGAA,-0.267
13,CCGATCGC,-0.182
14,CGAACACA,0.0367
15,AGAGAATC,-0.0452
16,GGGAGATA,-0.0605
17,AATCGTGA,0.0622
18,CGGCGACG,0.00981
19,CGCGTTAA,-0.167
20,CCTATCCG,-0.106
21,ACCGTAGG,-0.161
22,CACCCCTG,-0.0447

row,Sequence,PBM E-score
1,AATCGTCA,-0.179
2,GCCCGCGC,-0.0425
3,CAGGCAGG,-0.143
4,GCTAATAA,0.2
5,GATGATAC,0.00031
6,TACATACA,0.0379
7,ATAAACGG,0.113
8,AGAAAAGG,0.165
9,CAATCGGA,0.112
10,CACGTCGG,-0.207
11,AGTGTCGG,-0.135
12,CCTGTACG,-0.0656
13,GATGAGGC,-0.0834
14,AGTGGTTC,0.0961
15,TTACCAAA,0.158
16,ATAAAAGC,0.0728
17,CACGCCAA,-0.0834
18,GACGTATA,0.0663
19,ACGTCAGT,-0.233
20,ACCGATAA,-0.0638
